# Assay results: ChEMBL document CHEMBL4888484, “Replenishing the malaria drug discovery pipeline: Screening and hit evaluation of the MMV Hit Generation Library 1 (HGL1) against asexual blood stage Plasmodium falciparum ,using a nano luciferase reporter read-out” (2022)
# The whole screen tested about 150,000 compounds, of which about 540 (0.36%) showed an effect of 50% or more. The list shows a part of the results.
# Tested on: Plasmodium falciparum
# Assay: Primary screen in NF54 nanoGlo assay, in single point, at 2uM, 72h; a lower Z score goes with more inhibition
# Assay type: functional, Erythrocyte
# Conditions: timepoint 72 hour
SMILES,% Inhibition [%],Z score
Cc1csc(NC(=O)c2cccc(CN3CC[C@H](O)C3)c2)n1,-5,0.87
COCCN1CCN(C2CCN(c3cccc(-c4ccccc4)c3)CC2)CC1,-6,1.18
CCc1nc(C(=O)N2CCOC3CCCCC32)c[nH]1 (stereo not given),-9,1.41
Cc1nc(NC(=O)C(C)N2CCOC(Cn3cccn3)C2)sc1C (stereo not given),-6,1.02
CCOc1ccc(-c2nsc(NC(=O)COc3c(C)cccc3C)n2)cc1OC,0,0
Cc1cc2ccccc2c(N2CCN(CC(C)O)C(C)C2)n1 (stereo not given),-4,0.38
CCCNC(=O)N(C)CCc1noc(C(=O)NCc2ccc3c(c2)OCO3)n1,-22,2.05
C1CCCCCC2(CCCCC1)OC[C@H](CN1CCCCC1)O2,8,-1.05
CCN1CC(NS(=O)(=O)CC2CCCC2(F)F)CC1=O (stereo not given),25,-2.81
C[C@H](O)c1nc2cc(NC(=O)c3cncn3C)ccc2[nH]1,-21,3.61
CCCc1cnc(C)nc1N1C[C@H](C(=O)O)[C@@H](C2CC2)C1,-15,1.7
COCCn1ccnc1CN1CCO[C@H](C(=O)N(C)C)C1,-6,1.17
CCOc1ccccc1CCNc1nnc(CC)o1,-9,1.34
O=C(Cn1ncccc1=O)NC(c1ccccc1)c1ccccc1,-5,0.63
CN1CC(NC2CCc3c(F)ccc(Br)c32)CCC1=O (stereo not given),9,-0.96
COC(=O)CN(CC(=O)N1CC(=O)Nc2ccccc21)C1CCCC1,-17,1.7
N[C@H]1c2ccccc2C[C@@H]1Nc1nnc(C2CCC2)o1,-19,1.73
N[C@H]1CCC[C@@H](C(=O)N2CCC3(CC2)Cc2cccc(c2)Oc2cccc(c2)CCNC3=O)C1,2,-0.3
CC(C)(C)C(=O)N1CCC(C2CC2)CC1,-6,1
c1cc(-c2csc(C3CCN(c4cnccn4)CC3)n2)ccn1,8,-0.99
O=C(Cc1ccc(F)cc1F)N1CCn2nccc2C1,-7,1.05
Cc1nc[nH]c1CN1CCCC[C@@H]1CCc1cccs1,-6,1.18
O=C1NCCCC[C@@H]1N1CCN(S(=O)(=O)c2ccccc2)CC1,-3,0.43
C[C@H]1CCN(Cc2cccc3ncccc23)[C@@H](CO)C1,-10,1.64
CN1CCN(C(=O)CC[C@@H]2NC(=O)NC2=O)[C@@H](c2ccccc2)C1,-12,1.49
